This is one part of the list. Values were computed here from the reads of four pooled replicates and scatter widely.

This assay has as its target T1, Pho4 (S. cerevisiae) (UniProt P07270).
T1 sequence: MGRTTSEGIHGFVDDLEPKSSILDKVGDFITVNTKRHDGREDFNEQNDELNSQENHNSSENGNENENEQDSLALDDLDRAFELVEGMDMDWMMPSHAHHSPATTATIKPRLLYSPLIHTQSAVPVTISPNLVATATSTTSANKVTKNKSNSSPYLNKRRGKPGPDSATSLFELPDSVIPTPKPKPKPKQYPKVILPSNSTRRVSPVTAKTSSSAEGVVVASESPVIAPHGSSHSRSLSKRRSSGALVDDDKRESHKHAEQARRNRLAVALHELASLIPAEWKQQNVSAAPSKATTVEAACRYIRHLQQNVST
Put plainly: relative binding free energy (BET-seq); higher = weaker binding. To be noted: reference: library average.
In the case of TTGGCCACGTGGTGAG, the “relative binding free energy” value came out at 0.04 kcal/mol. Then TGTTGCACGTGGCGGT, with -0.11 kcal/mol; and AGTTACACGTGCATTT, with 0.13 kcal/mol. To TATGTCACGTGGGCCA belongs -0.01 kcal/mol; to TTGGCCACGTGGTTGT, -0.01 kcal/mol.

Regarding GTCGGCACGTGTGAGT, the “relative binding free energy” value was determined as 0.06 kcal/mol. Then AGGTACACGTGTAAGG, with 0.03 kcal/mol; and ACGGTCACGTGAGGGA, with 0.28 kcal/mol. To TAATGCACGTGGTAGC belongs -0.03 kcal/mol; to TAAGACACGTGTGGCG, 0 kcal/mol. To TTCTGCACGTGTGTCT belongs 0.06 kcal/mol. With TGGGTCACGTGGCTAA, the “relative binding free energy” value stood at 0.01 kcal/mol.

With CTTGTCACGTGTGTTA, the “relative binding free energy” value turned out to be 0.13 kcal/mol. Then GTCTGCACGTGTATTG, with 0.11 kcal/mol; and AGGGGCACGTGCGGGA, with -0.16 kcal/mol. Consider GTTTGCACGTGAGTTG, for which the “relative binding free energy” value was determined as 0.33 kcal/mol. Then GGTTTCACGTGTCTGG, with 0.33 kcal/mol. Then TTAGGCACGTGAAGCG, with 0.2 kcal/mol; and ATCAACACGTGGGTTT, with 0.02 kcal/mol. Regarding TATTACACGTGGGATT, the “relative binding free energy” value is -0.04 kcal/mol.

In the case of TTATGCACGTGAACGG, the “relative binding free energy” value was 0.22 kcal/mol. Turning to AGGTGCACGTGGCATT, the “relative binding free energy” value is -0.24 kcal/mol. For the sequence TGGAACACGTGTAGCG, the “relative binding free energy” value is 0.07 kcal/mol. To TTGTTCACGTGCTTTA belongs 0.24 kcal/mol; to TTACACACGTGTGTTT, 0.01 kcal/mol; to GACTACACGTGAGGGT, 0.35 kcal/mol. Then TGTTGCACGTGAACTG, with 0.22 kcal/mol; and TGGCGCACGTGGGGAA, with -0.33 kcal/mol; and GCAATCACGTGGTTTT, with 0.24 kcal/mol. Then CGGGTCACGTGTCGGT, with 0.15 kcal/mol; and TTTATCACGTGTGAAG, with 0.12 kcal/mol; and CGTCGCACGTGGTTGG, with -0.19 kcal/mol.

For the sequence TAGTGCACGTGCGGGA, the “relative binding free energy” value came out at 0.03 kcal/mol.

Turning to TAGTTCACGTGCTTTT, the “relative binding free energy” value turned out to be 0.32 kcal/mol.

Take ATAGGCACGTGTGTTT: the “relative binding free energy” value came to 0.07 kcal/mol. Then TTGGTCACGTGCGGGC, with 0.13 kcal/mol. On to ATTGTCACGTGGTCAT, for which the “relative binding free energy” value was 0 kcal/mol. To ACATGCACGTGATGGG belongs 0.08 kcal/mol; to GTTTTCACGTGAGTAC, 0.45 kcal/mol; to TTAGTCACGTGCAGGC, 0.1 kcal/mol.

With GAATTCACGTGTGTAA, the “relative binding free energy” value was 0.21 kcal/mol. As for TTCGGCACGTGTTGTG, the “relative binding free energy” value is -0.15 kcal/mol. Then AGTCTCACGTGGTGGG, with 0.22 kcal/mol; and TGTGACACGTGGACGT, with -0.14 kcal/mol; and ATCATCACGTGGAAGT, with 0.3 kcal/mol. For ATTCGCACGTGAGTGT, the “relative binding free energy” value is 0.02 kcal/mol.

In the case of TCAGCCACGTGTGAGG, the “relative binding free energy” value came out at 0.14 kcal/mol. Then ACAGACACGTGTGGGG, with -0.04 kcal/mol.

With TAGTGCACGTGGGACG, the “relative binding free energy” value was -0.1 kcal/mol. Then ATGTCCACGTGTGTAG, with 0.05 kcal/mol; and ATTCGCACGTGTGATA, with 0.02 kcal/mol. On to TGGTGCACGTGCGCAT, for which the “relative binding free energy” value is -0.16 kcal/mol.

For the sequence AGTGGCACGTGAGGGG, the “relative binding free energy” value turned out to be 0.13 kcal/mol. To TTGTTCACGTGCGCTA belongs 0.18 kcal/mol; to GGGTGCACGTGCTGGA, -0.07 kcal/mol.

For the sequence TTGGACACGTGTGATG, the “relative binding free energy” value was found to be 0.12 kcal/mol.

For the sequence TGGTACACGTGCAGGT, the “relative binding free energy” value was determined as 0.2 kcal/mol. To TTTGGCACGTGATTGT belongs 0.04 kcal/mol; to GATGGCACGTGGAGAT, 0.09 kcal/mol. Then TGTTTCACGTGGAGCT, with 0.3 kcal/mol. On to TAAATCACGTGAGTGG, for which the “relative binding free energy” value was 0.36 kcal/mol. To GGGGGCACGTGCTTGG belongs -0.1 kcal/mol; to GTTGACACGTGACTTG, 0.13 kcal/mol. To GTTCTCACGTGCTAGG belongs 0.35 kcal/mol; to GTTTACACGTGACTTA, 0.43 kcal/mol; to TTTAGCACGTGTGGTC, 0.07 kcal/mol.

Consider CGATGCACGTGGATGG, for which the “relative binding free energy” value was -0.03 kcal/mol.

On to CGCGGCACGTGGGAGG, for which the “relative binding free energy” value is -0.34 kcal/mol.

For TATCGCACGTGGTGGC, the “relative binding free energy” value is -0.07 kcal/mol. Then ATTCTCACGTGAGCGT, with 0.34 kcal/mol; and GTGGTCACGTGTATTT, with 0.23 kcal/mol.

Consider GTTATCACGTGGTCTA, for which the “relative binding free energy” value came out at 0.08 kcal/mol.

Regarding GGGTTCACGTGCAGCG, the “relative binding free energy” value is 0.31 kcal/mol.

Regarding CTGTTCACGTGCGGTG, the “relative binding free energy” value was found to be 0.2 kcal/mol. Then GAAGACACGTGGGTGT, with -0.01 kcal/mol; and ACGTGCACGTGGCGGT, with -0.12 kcal/mol. In the case of GTAGTCACGTGGCATG, the “relative binding free energy” value is 0.16 kcal/mol. Then TAGATCACGTGGGATA, with 0.26 kcal/mol; and CGTAACACGTGGGAGG, with -0.12 kcal/mol.

Take GAGTACACGTGGAGTG: the “relative binding free energy” value came out at 0.05 kcal/mol. Then AGTGTCACGTGGCTTT, with 0 kcal/mol. Then TTGGCCACGTGTAAGT, with 0.13 kcal/mol; and GGTAACACGTGGTGAT, with 0.01 kcal/mol; and TTGTTCACGTGACATG, with 0.29 kcal/mol. To TGGGACACGTGGCAGT belongs -0.02 kcal/mol; to ATTGACACGTGGAATG, 0.15 kcal/mol; to TGGATCACGTGTTCTT, 0.07 kcal/mol. As to TTCATCACGTGGGGTA, the “relative binding free energy” value was -0.03 kcal/mol. Consider GATCTCACGTGTGGGC, for which the “relative binding free energy” value stood at 0.24 kcal/mol. To TTTTTCACGTGCTGTG belongs 0.17 kcal/mol; to TGTGTCACGTGGTCCA, 0.07 kcal/mol. To CGTTGCACGTGGCGGG belongs -0.12 kcal/mol; to TCTGTCACGTGGCATT, 0.06 kcal/mol.

Regarding AAAGTCACGTGTCTTT, the “relative binding free energy” value amounted to 0.09 kcal/mol. To CGTTACACGTGGTTTT belongs 0 kcal/mol; to GACATCACGTGGTTGG, 0.29 kcal/mol; to TTCCGCACGTGGTTTT, -0.01 kcal/mol.

Consider AGAGTCACGTGCTGGC, for which the “relative binding free energy” value was determined as 0.22 kcal/mol. Then GTGTCCACGTGGGGCT, with -0.06 kcal/mol; and AGTATCACGTGATGCA, with 0.44 kcal/mol; and GCTGTCACGTGATTGG, with 0.27 kcal/mol.

In the case of CTGCGCACGTGTGAGT, the “relative binding free energy” value was -0.11 kcal/mol. Then GGTTGCACGTGCACGG, with 0.07 kcal/mol. To GATGTCACGTGGCAAG belongs 0.2 kcal/mol; to TGGAGCACGTGGAGAG, -0.12 kcal/mol.

On to TATGTCACGTGTTGGA, for which the “relative binding free energy” value is 0.18 kcal/mol. Then TCCTGCACGTGGAGGT, with -0.07 kcal/mol. Then GTGCACACGTGTTGGT, with 0.11 kcal/mol.

Turning to ATGGGCACGTGCTTAG, the “relative binding free energy” value was -0.11 kcal/mol.

For AGGGCCACGTGCGGTA, the “relative binding free energy” value was -0.19 kcal/mol. Regarding GGAGGCACGTGGGGGA, the “relative binding free energy” value is -0.16 kcal/mol. To TTGGACACGTGGTATG belongs 0.05 kcal/mol; to TGTATCACGTGCTTGG, 0.08 kcal/mol; to GCTTGCACGTGTGAAG, 0.09 kcal/mol.

In the case of GTATGCACGTGGAAGG, the “relative binding free energy” value was 0.07 kcal/mol.

GATTGCACGTGGGGAA: the “relative binding free energy” value is -0.09 kcal/mol. Then GGGAGCACGTGGAAGC, with -0.05 kcal/mol. To GAGGTCACGTGTGGGT belongs 0.26 kcal/mol. On to TAGTGCACGTGGGAGG, for which the “relative binding free energy” value is -0.06 kcal/mol. For the sequence ATACTCACGTGTGGTC, the “relative binding free energy” value was 0.3 kcal/mol.

GGGTGCACGTGGACAT: the “relative binding free energy” value was -0.1 kcal/mol. To AGTGTCACGTGGCTAG belongs 0 kcal/mol; to TAATACACGTGTCTTT, 0.18 kcal/mol; to GAGTTCACGTGAATGT, 0.47 kcal/mol. Take GTGTTCACGTGAAAGC: the “relative binding free energy” value was 0.4 kcal/mol.

On to TATATCACGTGTCGTA, for which the “relative binding free energy” value stood at 0.05 kcal/mol. Consider TAGAGCACGTGTGTCG, for which the “relative binding free energy” value was -0.19 kcal/mol. Then GTTCACACGTGATTTT, with 0.28 kcal/mol.

Consider TATCTCACGTGTAGAG, for which the “relative binding free energy” value worked out at 0.27 kcal/mol. Then AGCAACACGTGGGTGT, with -0.04 kcal/mol; and AGGAGCACGTGATATG, with 0.02 kcal/mol. As for CGGGGCACGTGTGCTA, the “relative binding free energy” value was -0.05 kcal/mol. Then ACGTACACGTGTGCGG, with 0.22 kcal/mol. Then GTGGACACGTGGGGTT, with -0.09 kcal/mol; and GAGTGCACGTGGCTGT, with -0.18 kcal/mol. To GATGGCACGTGGGTGC belongs -0.28 kcal/mol; to GGGTCCACGTGATCGG, 0.22 kcal/mol; to AATATCACGTGTGGCA, 0.29 kcal/mol.

Take AGTGCCACGTGAAAGT: the “relative binding free energy” value turned out to be 0.25 kcal/mol. Take TTCTGCACGTGATTGT: the “relative binding free energy” value was 0.18 kcal/mol. Then TTGGTCACGTGAGGGC, with 0.24 kcal/mol. In the case of TACTTCACGTGTTATT, the “relative binding free energy” value was 0.24 kcal/mol.

For AAGGCCACGTGGGTTT, the “relative binding free energy” value is -0.14 kcal/mol. As to TAGTACACGTGGCTGT, the “relative binding free energy” value was -0.03 kcal/mol. Turning to GACATCACGTGTGTGG, the “relative binding free energy” value was 0.23 kcal/mol.

ATTAGCACGTGGGAGC: the “relative binding free energy” value is -0.15 kcal/mol.
